Values quoted from earlier work as cited in paper PMC11006913.
The list shows a part of the results.

molecular target: PROP1 R112Q (Homo sapiens) (UniProt O75360); details: PBM; conditions not shown; double strand, one strand shown; scale: upbm affinity estimate (log intensity, higher = more binding, comparable within an allelic series)
Chain of UniProt O75360 (O75360 56-141 R112Q): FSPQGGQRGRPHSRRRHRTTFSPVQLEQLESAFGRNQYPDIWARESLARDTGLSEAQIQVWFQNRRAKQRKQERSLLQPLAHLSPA

Row | Sequence | binding signal
1 | CCAATTTA [8-mer CCAATTTA] | 12.6
2 | GATCAATA [8-mer GATCAATA] | 11.9
3 | AATTCAAC [8-mer AATTCAAC] | 11.8
4 | CAATTGTG [8-mer CAATTGTG] | 12.2
5 | CAATTGCA [8-mer CAATTGCA] | 12.2
6 | ACAATTGG [8-mer ACAATTGG] | 12.2
7 | CAATTGGC [8-mer CAATTGGC] | 12.4
8 | CCAATTGC [8-mer CCAATTGC] | 12.1
9 | ATTGATCA [8-mer ATTGATCA] | 12.2
10 | AATTGCGA [8-mer AATTGCGA] | 12
11 | GCCAATAA [8-mer GCCAATAA] | 12.3
12 | TATTGACA [8-mer TATTGACA] | 11.9
13 | AGAATTGG [8-mer AGAATTGG] | 12
14 | GATCAATC [8-mer GATCAATC] | 12
15 | CGAGAGGC [8-mer CGAGAGGC] | 10.9
16 | CAATTGAG [8-mer CAATTGAG] | 12.3
17 | GATATTAA [8-mer GATATTAA] | 12.2
18 | AAGGTAAT [8-mer AAGGTAAT] | 12
19 | AAATATCT [8-mer AAATATCT] | 11.7
20 | CCAATTCA [8-mer CCAATTCA] | 12.1

Row | Sequence | binding signal
21 | AATCAATT [8-mer AATCAATT] | 12.6
22 | CAATTGCC [8-mer CAATTGCC] | 12.2
23 | AAATGAGC [8-mer AAATGAGC] | 11.8
24 | GAATTGGC [8-mer GAATTGGC] | 12
25 | ATTAAACC [8-mer ATTAAACC] | 12.2
26 | TGGGGGAA [8-mer TGGGGGAA] | 10.9
27 | CCAATCCA [8-mer CCAATCCA] | 11.7
28 | ACAATTGC [8-mer ACAATTGC] | 12.1
29 | AAATAAGT [8-mer AAATAAGT] | 11.6
30 | TATGTAAA [8-mer TATGTAAA] | 11.8
31 | GATTGGAC [8-mer GATTGGAC] | 11.8
32 | GCCAATCA [8-mer GCCAATCA] | 12.1
33 | ATCAATAG [8-mer ATCAATAG] | 12
34 | CAATAGGA [8-mer CAATAGGA] | 11.8
35 | TATTAAGA [8-mer TATTAAGA] | 12
36 | CAATTGTA [8-mer CAATTGTA] | 12.2
37 | AACAATTG [8-mer AACAATTG] | 12.2
38 | ACCAATTC [8-mer ACCAATTC] | 12.1
39 | CGGCGTGC [8-mer CGGCGTGC] | 10.8
40 | GCAATTGA [8-mer GCAATTGA] | 12.2
